In PubChem BioAssay AID686978 (National Center for Advancing Translational Sciences (NCATS), 2013):
Among all 420,000 compounds or so, about 64,000 (15%) were called active. Inconclusive results, whose numbers are uncertain, are shown with a selection of clear calls. Calls follow the shape of the dose curve; as a rule, active = well fitted inhibition curve with a large enough effect; inconclusive = small, poorly fitted or top-dose-only effect; inactive = flat fitted curve, though single readings scatter. No potency is given beside an inconclusive call; the fits are too rough.

Assay: qHTS for Inhibitors of human tyrosyl-DNA phosphodiesterase 1 (TDP1): qHTS in cells in absence of CPT; also: nearly all actives have a fitted effect of over 55% in size
Conditions: DT40 Tdp1-/- hTDP1 cells, no CPT, ATP luminescence, 48 h; activity change, negative = growth inhibition: at 46.2 µM (top of the series) unless noted
Outline: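 Growth of hTDP1-complemented DT40 Tdp1-knockout cells is measured by ATP luminescence after at least 48 hr compound exposure at 37 °C, with DMSO substituting for the 20 nM CPT used in the parallel screen.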
% is scaled to controls: 0 for no effect and ±100 for the full control effect; potency is read from the fitted curve at half-maximal effect; tags tell the direction and shape of the fitted curve.

Row | SMILES | Potency | activity change, negative = growth inhibition
1 | CC(=O)Oc1ccccc1C(=O)O | inactive | –
2 | SCc1nc2ccc(Cl)cc2[nH]1 | active: 3.98 µM | –
3 | COc1ccc(/C=N\NC(=O)c2sccc2C)cc1Cn1nc(C)cc1C | inconclusive [inhibitor, full curve] | –
4 | O=c1[nH]cnc2nn(-c3ccccc3)nc12 | – | inactive: -2.38%
5 | COc1ccccc1N(CC(O)Cn1ccnc1C)S(=O)(=O)c1ccc(C)cc1 (centres undefined) | inconclusive [inhibitor, single point] | –
6 | CCCOc1ccccc1/C=C1/C(=O)ON=C1C | inconclusive [inhibitor, single point] | –
7 | COc1ccc(-c2nc(SCC(=O)Nc3nccs3)c(-c3ccc(Cl)cc3)[nH]2)cc1 | inconclusive [inhibitor, single point] | –
8 | CC1(C)Cc2cccc(OCC(=O)Nc3nccs3)c2O1 | inconclusive [inhibitor, partial curve] | –
9 | NC(=O)CSc1nc2c(sc(=S)n2-c2ccccc2)c(=O)[nH]1 | – | inactive: 0.564%
10 | COc1ccc(NC(=O)CN2C(=O)c3ccccc3S2(=O)=O)cc1S(=O)(=O)N1CCOCC1 | – | inactive: -7.81%
11 | O=C(c1ccco1)N1CCC[C@@]2(CCN(c3ccccc3)C2)C1 | inconclusive [inhibitor, single point] | –
12 | COc1ccc(N=C2NN=C(c3ccc4c(c3)OCCO4)CS2)cc1 | active: 25.9 µM | –
13 | Cc1ccc(C(=O)CSc2nc(-c3ccccc3)cc(=O)[nH]2)cc1 | inconclusive [inhibitor, single point] | –
14 | CCOc1ccc(-c2nc(CCl)cs2)cc1 | inconclusive [inhibitor, single point] | –
15 | CCOC(=O)C(c1ccccc1)C(Nc1ccccc1)c1ccccn1 (centres undefined) | inconclusive [inhibitor, partial curve, poor fit] | –
16 | Cc1ccc(C)n1-c1nnc(N2CCCC(C(=O)NCc3ccccc3)C2)s1 (centres undefined) | inconclusive [inhibitor, full curve, poor fit] | –
17 | CCOC(=O)COn1c(=O)c(-c2ccc(C)cc2)[n+]([O-])c2ccccc21 | – | inactive: -4.63%
18 | CC1(C#N)c2ccccc2C(Br)=CN1C(=O)c1ccccc1 (centres undefined) | inconclusive [inhibitor, partial curve] | –
19 | CCOC(=O)c1ccccc1NC(=O)N(Cc1ccco1)C1CCN(C(C)=O)CC1 | inconclusive [inhibitor, partial curve, poor fit] | –
20 | COc1cc(OC)c(C2N(c3ccc(Cl)c(Cl)c3)C(=O)C3CCCN32)cc1OC (centres undefined) | inconclusive [inhibitor, single point] | –
21 | CCOC(=O)C1=C(c2ccccc2)NC(=O)NC1c1ccc(O)c(Cl)c1 (centres undefined) | inconclusive [inhibitor, partial curve, poor fit] | –
22 | CCCCn1c2nc3ccccc3nc2c2c(=O)n(CCC)cnc21 | inconclusive [inhibitor, partial curve] | –
23 | CC(C)C(NC(=O)C1(NC(=O)OCc2ccccc2)CCCC1)C(=O)O (centres undefined) | – | inactive: -10.1%

Row | SMILES | Potency | activity change, negative = growth inhibition
24 | CCc1ccc(NC(=O)CSc2nc3ccsc3c(=O)n2C(C)CC)cc1 (centres undefined) | inconclusive [inhibitor, single point] | –
25 | O=S(=O)(N1CCCCC1)N1CCN(c2cc(Cl)ccc2Cl)CC1 | inconclusive [inhibitor, single point] | –
26 | O=C(NCc1ccccc1Cl)C1CCC(CNS(=O)(=O)c2ccc(Br)s2)CC1 (centres undefined) | inconclusive [inhibitor, single point] | –
27 | O=[N+]([O-])c1ccc(C=Nc2cccc3ccccc23)s1 | active: 20.6 µM | –
28 | Cc1ccc2nc(SCC(=O)Nc3nonc3C)[nH]c2c1 | – | inactive: -15.1%
29 | O=C1CN(C(=O)COC(=O)c2cnc(Cl)c(Cl)c2)c2ccccc2N1 | – | inactive: -4.12%
30 | CC(=O)Nc1ccc(S(=O)(=O)NCCc2csc3nc(-c4cccc(C)c4)nn23)cc1 | active: 20.6 µM | –
31 | O=C(c1ccco1)n1nc(-c2ccccc2)nc1NCc1ccccc1Cl | inconclusive [inhibitor, partial curve, poor fit] | –
32 | Cc1ccc(N(Cc2cccs2)C(=O)COc2ccccc2[N+](=O)[O-])cc1 | active: 23.1 µM | –
33 | O=C(NCc1ccccc1)C(=O)NCC(c1cccnc1)N1CCN(c2ccccc2)CC1 (centres undefined) | active: 13 µM | –
34 | Cc1cccc(C(=O)NCCC(=O)Nc2ccc(C#N)cc2)c1 | – | inactive: -4.6%
35 | CC1(Oc2ccc(CC#N)cc2)CCN(Cc2ccc(-n3ccnc3)cc2)C1 (centres undefined) | active: 13 µM | –
36 | CCC(SC1=Nc2ccccc2C2=NC(CC(C)C)C(=O)N12)C(=O)Nc1ccc2c(c1)OCO2 (centres undefined) | inconclusive [inhibitor, single point] | –
37 | COc1ccc(C2C=C(c3ccc(C)c(C)c3)Nc3ncnn32)c(OC)c1OC (centres undefined) | active: 5.17 µM | –
38 | CN(C)c1ccc(/C=C(\NC(=O)c2ccccc2)C(=O)NCc2cccnc2)cc1 | – | inactive: -22.9%
39 | CCCn1c(=O)c(C(=O)Nc2ccccc2C)c(O)c2ccccc21 | inconclusive [inhibitor, single point] | –
40 | C#CCOCCOCCOCCNc1nc(N2CCN(C(=O)Cn3cc(CCCN=C(N)N)nn3)CC2)nc(N2CCN(C(=O)[C@H](CCCCN)n3cc(CCCC)nn3)CC2)n1 | – | inactive: 6.25%
41 | CCN1CCN(c2ccc(S(=O)(=O)N3CCOCC3)cc2NC(=O)c2ccc(OCC(C)C)cc2)CC1 | inconclusive [inhibitor, single point] | –
42 | CCOC(=O)C1CCCN(C(=O)c2cc(Cl)ccc2Cl)C1 (centres undefined) | – | inactive: -5.86%
43 | Oc1ccccc1N=Cc1ccc[nH]1 | inconclusive [inhibitor, single point] | –
44 | CCOC(=O)c1c(NC(=O)C(C)Sc2c[nH]c3ccccc23)sc2c1CCC2 (centres undefined) | inconclusive [inhibitor, single point] | –
45 | Cc1noc(C)c1NC(=O)Nc1ccc2c(c1)C(=O)N([C@H](C)CO)C[C@H](C)[C@@H](CN(C)S(=O)(=O)c1ccc(Cl)cc1)OCCCC[C@@H](C)O2 | inconclusive [inhibitor, single point] | –
46 | Cc1csc(NC(=O)CCn2c(=O)oc3ccc(Cl)cc32)n1 | inconclusive [inhibitor, partial curve] | –

Row | SMILES | Potency | activity change, negative = growth inhibition
47 | Cc1ccc(N2C(=O)c3ccccc3C2Nc2ccccc2F)nc1 (centres undefined) | inconclusive [inhibitor, single point] | –
48 | CCN(CC)C(=O)C1=C(C)N(Cc2ccccc2)C(=O)C(CC(=O)NCc2cccc3ccccc23)C1 (centres undefined) | active: 18.4 µM | –
49 | Cc1nn(C)c(C)c1/C=C/C(=O)c1cccs1 | – | inconclusive: -31.7% [inhibitor]
50 | CC(OC(=O)C1=COCCO1)C(=O)NC1CCCCC1 (centres undefined) | – | inactive: 5.26%
51 | O=C(Nc1ccc(S(=O)(=O)Nc2cnc3ccccc3n2)cc1)c1ccc(Cl)c([N+](=O)[O-])c1 | inconclusive [inhibitor, single point] | –
52 | CC12CCC3c4ccccc4CCC3(CO1)C2 (centres undefined) | inconclusive [inhibitor, single point] | –
53 | CN1CCN(C(=O)c2cc3c(n(-c4ccccc4)c2=O)CC(C)(C)CC3=O)CC1 | – | inactive: 5.98%
54 | O=C(C1=C[C@H](c2coc3ccccc3c2=O)C[C@H](OCc2ccc(CO)cc2)O1)N1CCN(Cc2ccccc2)CC1 | active: 18.4 µM | –
55 | CNS(=O)(=O)CCc1ccc2[nH]cc(C3CCN(C)CC3)c2c1 | – | inactive: -11.7%
56 | Cc1ccc(OCc2nnc(SCC(=O)c3cccs3)n2-c2ccccc2)cc1C | inconclusive [inhibitor, partial curve, poor fit] | –
57 | O=C(NCCc1ccccc1)c1ccc(NC(=O)c2cccnc2)cc1 | inconclusive [inhibitor, single point] | –
58 | Cc1c(C)c2ccc(OCC(=O)NCCCn3ccnc3)cc2oc1=O | – | inactive: -21.6%
59 | CCOC(=O)N(C)c1c(CC)nc2c(OCc3ccccc3C)cccn12 | active: 14.6 µM | –
60 | Cc1cc2cc(CN(Cc3ccco3)C(=S)NCC3CCCO3)c(=O)[nH]c2cc1C (centres undefined) | active: 20.6 µM | –
61 | O=C(c1ccc(-c2cc3ccccc3oc2=O)cc1)N1CCN(c2ccc(Cl)cc2[N+](=O)[O-])CC1 | inconclusive [inhibitor, single point] | –
62 | CN(c1ccccc1)S(=O)(=O)c1cccc(C(=O)OCC(=O)Nc2ccc(C(N)=O)cc2)c1 | inconclusive [inhibitor, single point] | –
63 | COc1cc(CN(C(=O)c2oc3ccccc3c2C)C2CCS(=O)(=O)C2)cc(OC)c1OC (centres undefined) | inconclusive [inhibitor, single point] | –
64 | CCS(=O)(=O)c1ccc2oc(SCC(=O)NCCc3ccc(OC)cc3)nc2c1 | inconclusive [inhibitor, partial curve] | –
65 | CC(C)CNC(=O)c1cccc(NC(=O)COc2ccc([N+](=O)[O-])cc2)c1 | active: 23.1 µM | –
66 | Nc1c(C(O)(C(F)(F)F)C(F)(F)F)cc(C(O)(C(F)(F)F)C(F)(F)F)c2ccccc12 | inconclusive [inhibitor, single point] | –
67 | Cc1cc(C)cc(N(CC(=O)N2CCC(C)CC2)S(=O)(=O)c2ccccc2)c1 | inconclusive [inhibitor, single point] | –
68 | O=C(CCCn1c2ccccc2c(=O)c2ccccc21)Nc1ccc(F)cc1Cl | inconclusive [inhibitor, single point] | –
69 | Cc1sc(N)nc1C12CC3CC(CC(C3)C1)C2 | inconclusive [inhibitor, single point] | –
